Source: the BET-seq Pho4 binding data (Le et al. 2018)
Some of the results follow. The energies were worked out here from pooled read counts, against the library average; single values are noisy.

The sequences below were run against T1, Pho4 (S. cerevisiae) (UniProt P07270) (assay: relative binding free energy (BET-seq); higher = weaker binding). Conditions: reference: library average.
T1 sequence: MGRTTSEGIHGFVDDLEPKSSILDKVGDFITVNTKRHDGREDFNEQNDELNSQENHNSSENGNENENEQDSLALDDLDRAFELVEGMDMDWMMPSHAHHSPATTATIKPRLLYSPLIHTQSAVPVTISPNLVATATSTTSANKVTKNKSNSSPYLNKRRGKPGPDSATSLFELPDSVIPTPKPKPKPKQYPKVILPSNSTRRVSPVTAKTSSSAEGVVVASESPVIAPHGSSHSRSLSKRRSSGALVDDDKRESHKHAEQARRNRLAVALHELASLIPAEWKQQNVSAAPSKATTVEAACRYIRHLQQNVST

Sequence	relative binding free energy
TAGGACACGTGTGGGC	0.25 kcal/mol
GGTCCCACGTGAGGGT	0.13 kcal/mol
AGGATCACGTGATGGC	0.24 kcal/mol
CTGGGCACGTGGGACG	-0.28 kcal/mol
TTAGGCACGTGTGCTT	-0.07 kcal/mol
TTGGTCACGTGTTGCA	0.11 kcal/mol
TTGTCCACGTGGTTAT	-0.05 kcal/mol
TTTTACACGTGTCTCG	0.21 kcal/mol
GGAGGCACGTGAATGC	0.27 kcal/mol
TGTCGCACGTGGGCAA	-0.17 kcal/mol
GTTACCACGTGTTAGT	0 kcal/mol
TCAAACACGTGGGTTT	-0.02 kcal/mol
AGGTCCACGTGGGCAT	-0.14 kcal/mol
TTGTACACGTGTATGA	-0.07 kcal/mol
TGTAACACGTGGGCAG	-0.26 kcal/mol
AAAATCACGTGTCGGT	0.13 kcal/mol
CCTGTCACGTGTGGGC	0.16 kcal/mol
TTGGTCACGTGGGTTT	0.11 kcal/mol
TGAGTCACGTGGGCAA	0.08 kcal/mol
AAGGACACGTGGGATA	0.04 kcal/mol
TATGTCACGTGGGGCG	-0.01 kcal/mol
TTGCTCACGTGATGAG	0.24 kcal/mol
TATAGCACGTGGCGTG	-0.08 kcal/mol
ATTCACACGTGGAGTT	0.1 kcal/mol
CTATGCACGTGTGGTA	-0.01 kcal/mol

Sequence	relative binding free energy
TTATCCACGTGTCTGG	0.08 kcal/mol
TTTTTCACGTGGTTGA	0.33 kcal/mol
TGGTACACGTGGTTCT	0.17 kcal/mol
GGCTGCACGTGATGTG	0.06 kcal/mol
GTGGGCACGTGGTTGA	0.01 kcal/mol
AGTATCACGTGCATTA	0.17 kcal/mol
TAGGACACGTGGTACG	0.02 kcal/mol
TGAGACACGTGTAATT	0.07 kcal/mol
TATAGCACGTGTGAGA	-0.03 kcal/mol
CTTGTCACGTGACTTG	0.15 kcal/mol
ATGTTCACGTGATAGT	0.33 kcal/mol
GTGGGCACGTGAGCTT	0.13 kcal/mol
GGCGCCACGTGTGGGG	0.02 kcal/mol
TTAGTCACGTGCCGTT	-0.06 kcal/mol
GTACTCACGTGCGGTG	0.19 kcal/mol
TGTATCACGTGTAGTC	0.02 kcal/mol
CGAGGCACGTGGGAAA	-0.03 kcal/mol
TAGCTCACGTGTGTGC	0.29 kcal/mol
TTTAGCACGTGAATTC	0.31 kcal/mol
GTGGACACGTGTTTAA	0.13 kcal/mol
TAGTGCACGTGAGGGG	0.15 kcal/mol
GGATTCACGTGATTGG	0.4 kcal/mol
ATTCGCACGTGAGGGG	0.18 kcal/mol
CACATCACGTGGGGTT	0.03 kcal/mol
GGGGACACGTGTGTTA	0.11 kcal/mol

Sequence	relative binding free energy
TACGTCACGTGTTTGC	0.07 kcal/mol
GCGAGCACGTGGGGTG	-0.26 kcal/mol
TAGGCCACGTGTTGAG	-0.16 kcal/mol
TGCAGCACGTGGTGGG	-0.24 kcal/mol
GGATACACGTGGAGGA	0.06 kcal/mol
AGGAGCACGTGGTTAT	-0.07 kcal/mol
TCAGGCACGTGGAGTA	-0.19 kcal/mol
TGTCTCACGTGGAGGT	0.17 kcal/mol
CATAGCACGTGAGTGG	0.06 kcal/mol
GTATGCACGTGCAAGG	0 kcal/mol
TGGTTCACGTGATGGC	0.28 kcal/mol
TGTTGCACGTGTTACA	-0.18 kcal/mol
CTGTTCACGTGTATAG	0.11 kcal/mol
GGGCGCACGTGACGGG	0.07 kcal/mol
GTACGCACGTGAAAGG	0.31 kcal/mol
TGATTCACGTGTTAGT	0.1 kcal/mol
AGTGGCACGTGTGATA	0.02 kcal/mol
TAGGGCACGTGAGACG	-0.06 kcal/mol
AATTGCACGTGGTTTG	0 kcal/mol
AGGGGCACGTGCTAAG	-0.22 kcal/mol
ACTTTCACGTGCAGTT	0.36 kcal/mol
CGGGGCACGTGCTTGA	-0.14 kcal/mol
AGTTCCACGTGTTATG	0.18 kcal/mol
ATTTACACGTGGATTT	-0.06 kcal/mol
GTTATCACGTGTACTG	0.13 kcal/mol

Sequence	relative binding free energy
GTTGTCACGTGCGCTG	0.12 kcal/mol
GTGTACACGTGGGCTG	0.05 kcal/mol
AGTGACACGTGGTCTG	-0.19 kcal/mol
ATTGTCACGTGGGCGT	-0.12 kcal/mol
TGGGGCACGTGGTGGA	-0.14 kcal/mol
GAAAGCACGTGAGTTG	0.2 kcal/mol
ATCTTCACGTGGTTGG	0.27 kcal/mol
GTGGACACGTGTCGGA	-0.05 kcal/mol
TGGGCCACGTGTATTA	-0.07 kcal/mol
TAGCTCACGTGTCGTT	0.24 kcal/mol
CGGAGCACGTGAGGGA	0.06 kcal/mol
TTAGTCACGTGAATGA	0.18 kcal/mol
AGCAGCACGTGGTGAG	-0.07 kcal/mol
GGTCTCACGTGTGAGA	0.24 kcal/mol
TATCGCACGTGGCGGT	-0.17 kcal/mol
AGCAGCACGTGGGCAG	-0.15 kcal/mol
ATTTGCACGTGTACTG	0.05 kcal/mol
TTTGACACGTGAGAGT	0.28 kcal/mol
TTGGGCACGTGAAGGC	0.22 kcal/mol
TCACGCACGTGTTGTA	0.04 kcal/mol
ATTGGCACGTGACTGG	0.02 kcal/mol
GGTGTCACGTGCGATG	0.04 kcal/mol
AGATGCACGTGAGATT	0.18 kcal/mol
ATGTGCACGTGGGTCA	-0.29 kcal/mol
CGCTTCACGTGGGGAG	0.17 kcal/mol

Sequence	relative binding free energy
ATCTTCACGTGATATG	0.3 kcal/mol
GAGATCACGTGGGGAA	0.18 kcal/mol
GTGAGCACGTGAGGGG	0.14 kcal/mol
TGTGACACGTGTGAGA	0.06 kcal/mol
AGGCGCACGTGGCGGG	-0.22 kcal/mol
TTGGTCACGTGAGCTG	0.32 kcal/mol
TTCTGCACGTGGTCTT	-0.01 kcal/mol
CGTGACACGTGGGGTT	-0.14 kcal/mol
ACGTGCACGTGCTGGG	-0.1 kcal/mol
TGCGCCACGTGGGTAG	-0.22 kcal/mol
TTAGGCACGTGTAAGA	0.03 kcal/mol
ATATGCACGTGTTGGA	-0.01 kcal/mol
TGTGCCACGTGGGCAG	-0.36 kcal/mol
AAAGGCACGTGGAGTG	0.03 kcal/mol
TTTTTCACGTGTAGGG	0.35 kcal/mol
TTTCTCACGTGGGGTC	0.15 kcal/mol
AGCGGCACGTGGAGTT	-0.12 kcal/mol
TTTTTCACGTGCGGAT	0.35 kcal/mol
ATCGGCACGTGTTGAG	0.01 kcal/mol
CAAGTCACGTGGTGTG	0.01 kcal/mol
TTGTGCACGTGGGCCA	-0.24 kcal/mol
TTGCACACGTGGGTCG	-0.15 kcal/mol
CTGTTCACGTGTATGA	0.2 kcal/mol
CAGAGCACGTGATGGG	0.08 kcal/mol
TGTGGCACGTGTTGGA	0.02 kcal/mol

Sequence	relative binding free energy
TAATGCACGTGGCATG	-0.11 kcal/mol
TTGTGCACGTGAGGAC	0.17 kcal/mol
GAACTCACGTGGGGGC	0.21 kcal/mol
GGAATCACGTGTTGTC	0.25 kcal/mol
GTGGTCACGTGCTGGC	0.07 kcal/mol
CTTGCCACGTGGTGAT	-0.08 kcal/mol
TATGTCACGTGATGGC	0.23 kcal/mol
TATTGCACGTGGCGTA	-0.05 kcal/mol
AGGTCCACGTGGGTGG	-0.15 kcal/mol
AAGGTCACGTGTGAAT	0.23 kcal/mol
TGGGACACGTGATAGG	0.05 kcal/mol
TTTGACACGTGGGTAT	-0.18 kcal/mol
TTGTGCACGTGGCCTA	-0.06 kcal/mol
ATGATCACGTGTAATG	0.13 kcal/mol
CTACGCACGTGAGGGG	0.02 kcal/mol
TTTTGCACGTGGTAGC	-0.01 kcal/mol
CGAAGCACGTGGGGCA	-0.07 kcal/mol
AGGCACACGTGACGGG	0.28 kcal/mol
TGTACCACGTGGGTGC	-0.19 kcal/mol
AGAGTCACGTGCGCGG	0.04 kcal/mol
AATCTCACGTGGTGTT	0.1 kcal/mol
